From ChEMBL document CHEMBL1156829
Over roughly 5,400 compounds, “IFI” has its median near 2; the highest 2% begin near 22. The list shows a part of the results.

Experiment: NOVARTIS: Inhibition Frequency Index (IFI) - the number of HTS assays where a compound showed > 50% inhibition/induction, expressed as a percentage of the number of assays in which the compound was tested.
Format: functional

**Q.** Which IFI does the source give for `COc1ccc(CCNC(=O)CC(=O)NN=Cc2ccc(Br)cc2)cc1OC` here?
**A.** Its IFI is 0%.

**Q.** Which IFI does the source give for `CC(C)(C)c1cc(Br)cc(C=NNc2ccc([N+](=O)[O-])cc2)c1O` here?
**A.** Its IFI is 0%.

**Q.** For `Cc1ccc(NC(=O)c2cc(C(=O)c3cc(Cl)ccc3O)cn(-c3ccc(C)c(C)c3)c2=O)cc1C`, which IFI is on record?
**A.** Its IFI is 6.25%.

**Q.** For `Cc1ccn2c(NC(C)(C)CC(C)(C)C)c(-c3ccccc3OS(=O)(=O)CC34CCC(CC3=O)C4(C)C)nc2c1` (stereo not drawn), which IFI is on record?
**A.** Its IFI is 3.77%.

**Q.** Which IFI does the source give for `CCOC(=O)c1cc(-c2ccc(C)cc2)n(CCC(=O)Nc2cccc(C(F)(F)F)c2)c1C` here?
**A.** The IFI was 2.7%.

**Q.** Which IFI does the source give for `Clc1ccccc1-c1nc([P+](c2ccccc2)(c2ccccc2)c2ccccc2)c(N2CCOCC2)o1` here?
**A.** The IFI was 25.9%.

**Q.** Which IFI does the source give for `CC[n+]1c(/C=C2\Sc3oc4ccccc4c3N2C)ccc2cc(C)ccc21` here?
**A.** The IFI was 26.1%.

**Q.** For `COc1ccc(-c2c[n+](CC(=O)O[C@H]3C[C@H](C)CC[C@@H]3C(C)C)c3n2CCCCC3)cc1`, which IFI is on record?
**A.** The IFI was 21.9%.

**Q.** Which IFI does the source give for `Cc1ccc(-c2nn(CC(=O)Nc3ccc(OC(F)(F)F)cc3)c(=O)c3ccccc23)cc1S(=O)(=O)N1CCCCC1` here?
**A.** The IFI was 2.35%.

**Q.** Which IFI does the source give for `CCOC(=O)c1c(CSc2ccccc2)oc2cc(CN(C)C)c(O)c(Cl)c12` here?
**A.** The IFI was 4.62%.

**Q.** For `O=[N+]([O-])c1cccc(C(Nc2nccs2)c2ccc3cccnc3c2O)c1` (stereo not drawn), which IFI is on record?
**A.** The IFI was 7.69%.

**Q.** Which IFI does the source give for `CC1=C(C(=O)OC2CCCCC2)C(c2ccc(F)cc2)C2=C(CC(c3ccccc3)CC2=O)N1` (stereo not drawn) here?
**A.** The IFI was 5.88%.

**Q.** Which IFI does the source give for `CC(=O)CSc1nnc(-c2ccncc2)n1C` here?
**A.** The IFI was 1.51%.

**Q.** With `CCOc1ccc(/C=C(/C#N)c2nc3ccccc3[nH]2)cc1OC` as the compound, how does the IFI read?
**A.** The IFI was 8.42%.

**Q.** Which IFI does the source give for `O=C(Nc1cc(Cl)cc(Cl)c1)Nc1ccccc1C(=O)NCC1CC1` here?
**A.** Its IFI is 3.39%.

**Q.** For `Cc1ccc(-n2c(C(C)N(Cc3ccco3)C(=O)C3CCC3)nc3cc(Cl)ccc3c2=O)cc1` (stereo not drawn), which IFI is on record?
**A.** Its IFI is 3.09%.

**Q.** With `CCCCOc1ccc(C(=O)Nc2c3c(nn2-c2ccc(C)cc2C)CSC3)cc1` as the compound, how does the IFI read?
**A.** Its IFI is 0%.

**Q.** Which IFI does the source give for `COc1ccc(Nc2cc(C)nc(NCc3ccccc3)n2)cc1` here?
**A.** Its IFI is 4%.

**Q.** Which IFI does the source give for `CN1CCN(N/C=C2/C(=O)N(c3nc4ccccc4s3)N=C2c2ccccc2)CC1` here?
**A.** The IFI was 0%.

**Q.** With `COc1ccc(C2CC(=O)C3=C(C2)NC(C)=C(C(=O)OC(C)C)C3c2ccccc2C)cc1OC` (stereo not drawn) as the compound, how does the IFI read?
**A.** Its IFI is 4.76%.

**Q.** Which IFI does the source give for `COc1ccc2c(c1OC)C(=O)N(c1ncc(C)s1)C2` here?
**A.** Its IFI is 0%.

**Q.** Which IFI does the source give for `CCC(C)(C)c1ccc(Oc2ccc(NC(=O)c3ccc([N+](=O)[O-])o3)cc2)cc1` here?
**A.** Its IFI is 15.2%.

**Q.** With `CC(=O)N1CCOC1C(C)(C)C/C=C(\C)CCC=C(C)C` (stereo not drawn) as the compound, how does the IFI read?
**A.** The IFI was 1.47%.

**Q.** Which IFI does the source give for `CN(C)c1ccc(/C=C2\SC(=Nc3ccc(F)cc3)NC2=O)cc1` here?
**A.** Its IFI is 0%.

**Q.** For `Oc1ncnc2c1C(c1ccccc1)c1c(O)ncnc1O2`, which IFI is on record?
**A.** Its IFI is 0%.

**Q.** With `CC[n+]1c(C=C2C=CN(c3ccc(Cl)cc3)C=C2)ccc2ccccc21` as the compound, how does the IFI read?
**A.** Its IFI is 15.4%.

**Q.** With `Cc1ccn2c(NC(C)(C)CC(C)(C)C)c(-c3ccccc3OC(=O)C3C[C@H]3c3ccccc3)nc2c1` (stereo partly drawn) as the compound, how does the IFI read?
**A.** Its IFI is 3.74%.

**Q.** With `N#Cc1ccc(NC(=O)NC2CC3CCCC(C2)N3CCc2ccccc2)cc1` (stereo not drawn) as the compound, how does the IFI read?
**A.** Its IFI is 3.8%.

**Q.** For `COc1ccc(O)c(C=NNc2nc3ccccc3[nH]2)c1`, which IFI is on record?
**A.** The IFI was 8.33%.

**Q.** Which IFI does the source give for `COCCNCCN1CCN(c2ccc(C)cc2)C[C@@H]1c1ccccc1` here?
**A.** Its IFI is 1.24%.

**Q.** Which IFI does the source give for `c1cc2cc3ccc(OCCN4CCCCC4)cc3nc2cc1OCCN1CCCCC1` here?
**A.** Its IFI is 2.68%.

**Q.** With `O=C(Nc1ccccc1O)c1ccc(C(=O)N(C2CCCCC2)C2CCCCC2)cc1` as the compound, how does the IFI read?
**A.** Its IFI is 0%.

**Q.** For `O=C(Nc1ccc(NC(=O)c2ccco2)cc1Cl)c1ccccc1`, which IFI is on record?
**A.** The IFI was 0%.

**Q.** With `OCCNc1nc(Nc2ccc(Br)cc2)nc2ccccc12` as the compound, how does the IFI read?
**A.** Its IFI is 0%.

**Q.** Which IFI does the source give for `CCCCN(CCCC)S(=O)(=O)c1nc(C)c(Cl)c(C)c1C#N` here?
**A.** The IFI was 0%.

**Q.** With `Cc1cccc(N2C(=O)C3C(C2=O)C2(c4ccccc4)C(=O)C3(c3ccccc3)C(c3ccccc3)=C2c2ccccc2)c1` (stereo not drawn) as the compound, how does the IFI read?
**A.** The IFI was 0%.

**Q.** Which IFI does the source give for `C=CCn1c2cc(C)sc2c2cnn(CC(=O)N3CC(C)CC(C)C3)c(=O)c21` (stereo not drawn) here?
**A.** The IFI was 0%.

**Q.** With `CCCCOc1c2ccccc2nc2ccccc12` as the compound, how does the IFI read?
**A.** Its IFI is 0%.

**Q.** With `CCOc1ccc(C2=NC3(CCN(C(C)C)CC3)NC(c3cc(Cl)ccc3O)C2)cc1` (stereo not drawn) as the compound, how does the IFI read?
**A.** The IFI was 3.12%.

**Q.** For `CCOc1ccc(Nc2cc(C)nc3c(C)cc(C)cc23)cc1`, which IFI is on record?
**A.** Its IFI is 1.11%.

**Q.** Which IFI does the source give for `CCN(CC)CCNc1ccnc2ccc([N+](=O)[O-])cc12` here?
**A.** Its IFI is 0%.

**Q.** With `Cc1ccc(-c2cn3ccccc3[n+]2CC(=O)c2ccc(Cl)cc2)cc1[N+](=O)[O-]` as the compound, how does the IFI read?
**A.** Its IFI is 0%.

**Q.** Which IFI does the source give for `COc1ccc(OC)c(-c2ccc(O)c(CNC3CCCCCCC3)c2)c1` here?
**A.** Its IFI is 1.72%.

**Q.** With `Oc1ccccc1Nc1nc(NCc2ccccc2)c2ccccc2n1` as the compound, how does the IFI read?
**A.** The IFI was 2.7%.

**Q.** With `Clc1cc(N2CCCCC2)c(Cl)nn1` as the compound, how does the IFI read?
**A.** Its IFI is 0%.

**Q.** For `NS(=O)(=O)c1ccc(N/C=C/C(=O)c2ccc(Cl)s2)cc1`, which IFI is on record?
**A.** Its IFI is 0%.

**Q.** Which IFI does the source give for `Cc1ccc2nc(-c3ccccc3)cc(C(=O)Nc3ccc(Cl)c(Cl)c3)c2c1` here?
**A.** Its IFI is 1.5%.

**Q.** With `CC1CCCCN1CCCN(Cc1c2ccccc2cc2ccccc12)C(=O)c1ccccc1Cl` (stereo not drawn) as the compound, how does the IFI read?
**A.** Its IFI is 2.08%.
